Assay [1] has as its system HSkMC (human skeletal muscle cells). The experiment in a line: cytotoxicity call (relative viability < 0.9). Particulars: 10 µM.
In assay [2] the test system is HepG2. The experiment in a line: cytotoxicity call (relative viability < 0.9). Particulars: 10 µM.
For assay [3], the system named is S. aureus RN4220. As to the kind of experiment: growth inhibition call (relative growth <= 0.2). Particulars: 50 µM.

Some of the results follow.

This passage reports cytotoxicity call and growth inhibition call results from the antibiotic and cytotoxicity screens of Wong et al. (2023).

On to `C[C@H](CO)N1C[C@H](C)[C@@H](CN(C)C(=O)NC2CCCC2)Oc2cc(-c3cncnc3)ccc2S1(=O)=O`, for which the cytotoxicity call in assay [1] and in assay [2] was “inactive” throughout. For the same compound, the growth inhibition call in assay [3] is “inactive”.

Turning to `COc1ccc(S(=O)(=O)N(C)C[C@H]2Oc3ccc(NS(=O)(=O)c4ccc(F)cc4)cc3C(=O)N([C@H](C)CO)C[C@H]2C)cc1`, the cytotoxicity call in assay [1] and in assay [2] was “inactive” in each case. For the same compound, the growth inhibition call in assay [3] is “inactive”.

Turning to `C[C@@H]1CN([C@H](C)CO)C(=O)Cc2cc(NC(=O)Cn3cnnn3)ccc2O[C@H]1CN(C)Cc1ccc(-c2ccccc2)cc1`, the cytotoxicity call in assay [1] and in assay [2] was “inactive” throughout. In addition, the growth inhibition call in assay [3] was “inactive”.

As for `C[C@@H]1CN([C@@H](C)CO)C(=O)c2cc(C#CC3(O)CCCC3)cnc2O[C@H]1CN(C)C(=O)Nc1ccc2c(c1)OCO2`, the cytotoxicity call in assay [1] and in assay [2] was “inactive” in each case. Moreover, the growth inhibition call in assay [3] is “inactive”.

`CNC[C@@H]1Oc2cc(C#CCN(C)C)ccc2S(=O)(=O)N([C@H](C)CO)C[C@@H]1C`: the cytotoxicity call in assay [1] and in assay [2] was “inactive” throughout. In assay [3], the growth inhibition call is “inactive”.

Regarding `C[C@@H]1CN([C@H](C)CO)C(=O)c2cccc(NC(=O)c3ccc(-c4nccs4)cc3)c2O[C@H]1CN(C)Cc1ccc(C(=O)Nc2ccccc2N)cc1`, the cytotoxicity call in assay [1] and in assay [2] was “inactive” each time. Also, the growth inhibition call in assay [3] is “inactive”.

For `C[C@H](CO)N1C[C@H](C)[C@H](CN(C)Cc2ccc(C(=O)O)cc2)OCCCC[C@H](C)Oc2ccc(NC(=O)C3CCCCC3)cc2C1=O`, the cytotoxicity call in assay [1] and in assay [2] was “inactive” throughout. Further, the growth inhibition call in assay [3] was “inactive”.

As for `CCCN(C)C[C@@H]1OCCCC[C@H](C)Oc2ccc(NC(=O)Nc3ccc(C(F)(F)F)cc3)cc2C(=O)N([C@@H](C)CO)C[C@@H]1C`, the cytotoxicity call in assay [1] was “active”. In assay [2], the cytotoxicity call is “inactive”. Also, in assay [3], the growth inhibition call was “inactive”.

For the compound `C[C@@H]1CCCCO[C@H](CN(C)C(=O)Nc2ccc3c(c2)OCO3)[C@@H](C)CN([C@H](C)CO)C(=O)c2cc(NC(=O)CCC(F)(F)F)ccc2O1`, the cytotoxicity call in assay [1] and in assay [2] was “inactive” throughout. Besides, the growth inhibition call in assay [3] was “inactive”.

On to `Nc1cncnc1`, for which the cytotoxicity call in assay [1] and in assay [2] was “inactive” throughout. The growth inhibition call in assay [3] is “inactive”.

For the compound `C[C@@H]1CN([C@@H](C)CO)C(=O)c2cccc(NC(=O)c3cnccn3)c2O[C@@H]1CN(C)S(=O)(=O)c1ccc(Cl)cc1`, the cytotoxicity call in assay [1] and in assay [2] was “inactive” in each case. The growth inhibition call in assay [3] was “inactive”.

Take `C[C@H](CO)N1C[C@H](C)[C@H](CN(C)S(=O)(=O)c2ccccc2)Oc2ncc(-c3cccc(C(=O)N(C)C)c3)cc2C1=O`: the cytotoxicity call in assay [1] and in assay [2] was “inactive” each time. Moreover, the growth inhibition call in assay [3] was “inactive”.

For the compound `Cc1ccc(S(=O)(=O)N(C)C[C@H]2Oc3ccc(NS(=O)(=O)c4cn(C)cn4)cc3C(=O)N([C@@H](C)CO)C[C@@H]2C)cc1`, the cytotoxicity call in assay [1] and in assay [2] was “inactive” each time. Besides, in assay [3], the growth inhibition call was “inactive”.

For the compound `CNC[C@@H]1OCCCC[C@H](C)Oc2ccc(NC(=O)Nc3ccc(C(F)(F)F)cc3)cc2C(=O)N([C@H](C)CO)C[C@H]1C`, the cytotoxicity call in assay [1] and in assay [2] was “inactive” in each case. For the same compound, in assay [3], the growth inhibition call is “active”.

Consider `NCCCC(=O)O`, for which the cytotoxicity call in assay [1] and in assay [2] was “inactive” throughout. For the same compound, in assay [3], the growth inhibition call was “inactive”.

As for `COc1ccc(NC(=O)N(C)C[C@H]2OCCCC[C@@H](C)Oc3ccc(NC(=O)Nc4ccc(C(F)(F)F)cc4)cc3C(=O)N([C@H](C)CO)C[C@H]2C)cc1`, the cytotoxicity call in assay [1] is “inactive”. Also, the cytotoxicity call in assay [2] was “active”. Besides, the growth inhibition call in assay [3] was “inactive”.

As for `Cc1ccc(S(=O)(=O)Nc2ccc3c(c2)C(=O)N([C@@H](C)CO)C[C@H](C)[C@@H](CN(C)C(=O)Cc2ccccc2)OCCCC[C@@H](C)O3)cc1`, the cytotoxicity call in assay [1] was “inactive”. The cytotoxicity call in assay [2] was “active”. Further, the growth inhibition call in assay [3] was “inactive”.

On to `COc1ccc(S(=O)(=O)Nc2ccc3c(c2)C(=O)N([C@H](C)CO)C[C@H](C)[C@H](CN(C)Cc2ccc(C(=O)O)cc2)OCCCC[C@H](C)O3)cc1`, for which the cytotoxicity call in assay [1] and in assay [2] was “inactive” each time. Also, the growth inhibition call in assay [3] is “inactive”.

`CO[C@H](CN(C)S(=O)(=O)c1ccc(Cl)cc1)[C@@H](C)CN([C@@H](C)CO)S(=O)(=O)c1cccc(Cl)c1`: the cytotoxicity call in assay [1] and in assay [2] was “inactive” throughout. The growth inhibition call in assay [3] is “inactive”.

As for `Cc1cc(/C=N/O)[nH]c(=O)n1`, the cytotoxicity call in assay [1] and in assay [2] was “inactive” in each case. Also, the growth inhibition call in assay [3] is “inactive”.

On to `COc1ccccc1NC(=O)N(C)C[C@@H]1Oc2cc(Br)ccc2S(=O)(=O)N([C@@H](C)CO)C[C@@H]1C`, for which the cytotoxicity call in assay [1] and in assay [2] was “inactive” throughout. Also, in assay [3], the growth inhibition call was “inactive”.

For `C[C@@H]1CN([C@H](C)CO)C(=O)Cc2cc(NS(=O)(=O)c3cccs3)ccc2O[C@H]1CN(C)Cc1ccncc1`, the cytotoxicity call in assay [1] and in assay [2] was “inactive” throughout. In addition, the growth inhibition call in assay [3] is “inactive”.

With `C[C@@H]1CN([C@@H](C)CO)C(=O)c2cc(-c3ccncc3)cnc2O[C@H]1CN(C)S(=O)(=O)c1ccc(F)cc1`, the cytotoxicity call in assay [1] and in assay [2] was “inactive” throughout. Besides, in assay [3], the growth inhibition call was “inactive”.

As to `C[C@@H]1CN([C@@H](C)CO)C(=O)c2cc(NC(=O)Nc3ccccc3)ccc2O[C@@H](C)CCCCO[C@@H]1CN(C)C(=O)C1CCCCC1`, the cytotoxicity call in assay [1] and in assay [2] was “inactive” each time. Moreover, in assay [3], the growth inhibition call was “inactive”.

As to `C[C@@H]1CN([C@H](C)CO)C(=O)Cc2cc(NC(=O)C3CCCCC3)ccc2O[C@@H]1CN(C)Cc1ccc(C(F)(F)F)cc1`, the cytotoxicity call in assay [1] is “inactive”. For the same compound, the cytotoxicity call in assay [2] is “active”. Moreover, in assay [3], the growth inhibition call is “inactive”.

For `CC(C)NC(=O)Nc1ccc2c(c1)C(=O)N([C@@H](C)CO)C[C@@H](C)[C@@H](CN(C)C(=O)Nc1ccc(C(F)(F)F)cc1)OCCCC[C@@H](C)O2`, the cytotoxicity call in assay [1] and in assay [2] was “inactive” in each case. Also, in assay [3], the growth inhibition call is “inactive”.

Take `CC(C)NC(=O)N(C)C[C@@H]1Oc2c(NC(=O)C3CCCCC3)cccc2C(=O)N([C@H](C)CO)C[C@@H]1C`: the cytotoxicity call in assay [1] and in assay [2] was “inactive” in each case. Besides, in assay [3], the growth inhibition call was “inactive”.

Turning to `C[C@@H]1CN([C@@H](C)CO)C(=O)c2cc(-c3ccncc3)cnc2O[C@H]1CN(C)Cc1ccc(Oc2ccccc2)cc1`, the cytotoxicity call in assay [1] and in assay [2] was “inactive” each time. For the same compound, the growth inhibition call in assay [3] is “inactive”.
